According to PubChem BioAssay AID1346428 (National Center for Advancing Translational Sciences (NCATS), 2018):
The campaign covered roughly 48,000 compounds. About 1,200 (2.5%) were called active. Inconclusive results (about 2%) are left out.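 The calls were made as follows: active = activation of at least 60% and not above a set upper limit (about 1 call in 100 departs from these limits); inconclusive = activation of 40% to 60%, or above that upper limit; inactive = activation under 40%.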 Some of the results follow.

Each compound was assayed against Probable G-protein coupled receptor 32 (Homo sapiens) (UniProt O75388) (assay: qHTS for Agonists of Human Resolvin D1 Receptor DRV1). Settings: CHO-K1 GPR32 beta-arrestin PathHunter luminescence, 90 min; at 76.9 µM; stronger effect = higher value; zero percent set by DMSO-only wells.
In short: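 Readings come from a cell-based beta-arrestin complementation format: CHO-K1 GPR32 stable cells (2,500/well) treated 90 min with compounds, then beta-Gal substrate added for 1 h before chemiluminescence imaging.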
Also: 0% is about no effect.

Sequence of UniProt O75388 (O75388 whole entry, looked up): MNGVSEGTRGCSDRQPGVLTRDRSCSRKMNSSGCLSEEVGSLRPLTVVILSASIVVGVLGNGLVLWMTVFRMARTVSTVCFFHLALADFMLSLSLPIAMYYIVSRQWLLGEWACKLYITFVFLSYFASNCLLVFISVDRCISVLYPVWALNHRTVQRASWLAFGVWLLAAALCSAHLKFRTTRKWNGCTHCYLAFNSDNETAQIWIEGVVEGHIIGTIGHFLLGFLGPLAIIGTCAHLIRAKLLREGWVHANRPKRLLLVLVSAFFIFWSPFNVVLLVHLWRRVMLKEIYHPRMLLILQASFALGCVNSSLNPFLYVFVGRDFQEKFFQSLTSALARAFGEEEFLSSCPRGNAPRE

Structure (SMILES) | activation
CCCc1nn2c(=O)cc(COC(=O)c3ccc(NC(=O)C4CCCCC4)cc3)nc2s1 | inactive: -31.5%
Cc1cc(S(=O)(=O)Nc2ccc(C(=O)O)cc2)c(C)c(S(=O)(=O)c2ccc(Cl)cc2)c1 | inactive: -28.2%
COc1ccc(C)cc1NC(=O)c1cn(C)c(=O)c2cc(OC)c(OC)cc12 | inactive: 15.9%
COc1cccc(NS(=O)(=O)c2ccc3c(c2)N(C)C(=O)CC(=O)N3C)c1 | inactive: 1.53%
CCc1nnc2c(Nc3ccc(N(CC)CC)cc3C)nc3ccccc3n12 | inactive: -19.8%
Cc1ccc(S(=O)(=O)NCc2nc3cccnc3n2Cc2ccccc2Cl)c(C)c1 | inactive: -21.7%
CCc1ccccc1NC(=O)N1CC(C)Sc2ccccc21 (configuration not stated) | inactive: -34.8%
COc1ccccc1NC(=O)CN1C(=O)c2ccccc2Sc2ccc(C(=O)N3CCCC3)cc21 | inactive: -6.06%
CC(=O)c1ccc(NC(=O)c2nc(-c3ccccc3)n(-c3ccccc3)n2)cc1 | inactive: -10.3%
O=C(Nc1ccc(Br)cc1F)N1CC=C(c2c[nH]c3ccccc23)CC1 | inactive: -20.5%
CC(=O)c1ccccc1OCC(O)Cn1c(CO)nc2ccccc21 (configuration not stated) | inactive: 27.4%
CCOc1ccccc1NC(=O)C1CCCN1S(=O)(=O)c1ccc2c(c1)C(C)(C)C(=O)N2C (configuration not stated) | inactive: -16.3%
COc1cc(C(=O)Nc2ccc3c(c2)N(C2CCCC2)C(=O)c2ccccc2S3)cc(OC)c1OC | inactive: -1.76%
Cc1ccc(C)c(NC(=O)Cn2cc(C(=O)c3cccs3)c3ccccc32)c1 | inactive: -12.4%
CC(C)Oc1ccc(C(=O)NCC(c2ccc(N(C)C)cc2)N2CCCC2)cc1 (configuration not stated) | inactive: -5.64%
CCOc1ccccc1NC(=O)CCNS(=O)(=O)c1cccc2nonc12 | inactive: -5.1%
CCOC(=O)c1c(NC(=O)c2cc3nc(-c4ccc(Br)cc4)cc(C(F)(F)F)n3n2)sc(C(C)=O)c1C | inactive: 3.87%
CCC(C(=O)NCc1ccc(OC)c(OC)c1)n1nc(C)c2c(C)n(-c3ccc(C)cc3)nc2c1=O (configuration not stated) | inactive: -8.19%
Cc1ccc(C(=O)COC(=O)c2cccc(NC(=O)c3ccc(Cl)cc3Cl)c2)cc1 | inactive: -2.55%
COc1ccc(NC(=O)N2CCOc3ccc(Cl)cc32)cc1 | inactive: -27.4%
Nc1c(C(=O)Nc2ccccc2F)sc2nc3c(cc12)CCCCCC3 | active: 71.8%

Structure (SMILES) | activation
Cc1ccc(NS(=O)(=O)c2cc(-c3cnc(C4CC4)o3)ccc2C)cc1Cl | inactive: -4.82%
Cc1cc(NC(=O)c2ccc3c(c2)OCCO3)cc(-c2nc3ccccc3o2)c1O | inactive: 23.2%
COc1ccc(Cc2nc3c4cnn(-c5ccccc5F)c4ncn3n2)cc1 | inactive: -3.47%
COc1ccc(Cl)cc1N(C)C(=O)c1cc2c(=O)oc3ccc(C)cc3c2s1 | inactive: 29.1%
CCOC(=O)c1ccccc1NC(=O)CN1CCCN(Cc2cccc(Cl)c2)S1(=O)=O | inactive: -23.4%
CCc1ccc(NC(=O)CCNS(=O)(=O)c2ccc3c(c2)oc(=O)n3C)cc1 | inactive: 9.52%
CCCCNC(=O)c1cc(-c2ccc(OC)cc2)nc2n[nH]c(-c3cccc([N+](=O)[O-])c3)c12 | inactive: -12.7%
CCc1ccccc1NC(=O)CN1CCCN(Cc2cc(C)ccc2C)S1(=O)=O | inactive: -9.46%
Cc1ccc(CNC(=O)c2ccc3c(c2)nc2n3CCOC2)cc1 | inactive: -9.14%
Cc1ccc(-n2nc(C)c3c(C(=O)NCCc4ccccc4)cc(C)nc32)cc1 | inactive: -13.2%
CCN(CC)c1ccc(C(=O)NCc2ccc3c(c2)CCN3C(=O)c2ccc(F)cc2)cc1 | inactive: -34.3%
CCN(CC)CCCNC(=O)c1nn(C)c2c1CSc1ccccc1-2 | inactive: -4.2%
COc1ccccc1-c1cc(C(=O)Nc2cc(OC)c(OC)c(OC)c2)no1 | inactive: -3.4%
COc1ccc(C(C)=O)cc1CSc1nc(NCCc2ccccc2)c2ccccc2n1 | inactive: -7.01%
Cc1cccc(N(CC(=O)NCCSCc2cccc(Cl)c2)S(=O)(=O)c2ccccc2)c1C | inactive: 19.8%
CCCS(=O)(=O)c1c(S(=O)(=O)CCC)c2cc(CC)ccn2c1C(=O)c1ccc(Cl)cc1 | inactive: -11.7%
Cc1ccc(NC(=O)C2CCN(S(=O)(=O)c3c(C)noc3/C=C/c3cccs3)CC2)cc1F | inactive: -28.7%
COc1ccc(NC(=O)CCc2nc3c(C)nn(-c4ccc(C)cc4)c3n(C)c2=O)cc1 | inactive: 0.164%
O[Si](CCCN1CCCCC1)(c1ccc(F)cc1)C1CCCCC1 (configuration not stated) | inactive: 8.87%
COc1ccc(C2NC(=O)N(C)C3=C2C(=O)N(c2cccc(C(=O)O)c2)C3)cc1 (configuration not stated) | inactive: 2.61%
COc1ccc(Cl)cc1CNCCSc1nnnn1-c1ccccc1 | inactive: -17.7%
